Results from publication PMC6919601, “Identification of Plasmodium dipeptidyl aminopeptidase allosteric inhibitors by high throughput screening” (PLoS ONE, 2019).
Out of some 110,000 compounds screened, about 230 (0.21%) showed an effect of 50% or more. This is one part of the list.

What follows are compounds tested against DPAP1 (Plasmodium falciparum, UniProt Q8IIJ9) (assay: primary screen, percent inhibition; read by cleavage of a fluorogenic dipeptide substrate; higher = more effect of the substance).
Design: species or system P. falciparum D10 trophozoite lysates; single well
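Further: 30 min substrate incubation versus DMSO and 10 µM JCP410 controls.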

DPAP1, sequence (Q8IIJ9 whole entry, looked up): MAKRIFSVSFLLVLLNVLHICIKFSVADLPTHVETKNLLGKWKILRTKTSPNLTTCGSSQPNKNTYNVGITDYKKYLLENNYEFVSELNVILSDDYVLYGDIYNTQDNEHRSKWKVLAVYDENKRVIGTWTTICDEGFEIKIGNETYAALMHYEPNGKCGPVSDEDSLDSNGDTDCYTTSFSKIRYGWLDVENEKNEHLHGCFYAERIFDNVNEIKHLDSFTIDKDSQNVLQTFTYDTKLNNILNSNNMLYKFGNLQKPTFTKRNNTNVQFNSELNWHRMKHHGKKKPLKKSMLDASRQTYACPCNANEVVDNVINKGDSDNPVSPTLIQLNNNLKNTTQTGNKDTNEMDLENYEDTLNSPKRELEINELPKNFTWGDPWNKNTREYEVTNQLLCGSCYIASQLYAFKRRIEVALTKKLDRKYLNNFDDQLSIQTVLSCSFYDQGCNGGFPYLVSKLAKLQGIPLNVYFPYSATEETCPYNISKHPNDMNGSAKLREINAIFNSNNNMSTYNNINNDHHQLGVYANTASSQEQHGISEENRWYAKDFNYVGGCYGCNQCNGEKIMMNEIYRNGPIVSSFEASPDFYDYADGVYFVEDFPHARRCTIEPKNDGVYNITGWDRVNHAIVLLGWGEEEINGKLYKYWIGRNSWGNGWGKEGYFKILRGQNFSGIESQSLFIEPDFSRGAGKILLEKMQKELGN

| SMILES | % Inhibition @ 10 uM [%] |
| --- | --- |
| Cc1cccc(NC(=O)COc2cccc(C)c2)c1 | -1.97 |
| Cc1cc2c(c(=O)n1Cc1ccccn1)C(c1cccc(Cl)c1)C(C#N)=C(N)O2 (stereo not shown) | 0.627 |
| CC1=C(C(=O)Nc2ccc(C)cn2)C(c2cccc(Br)c2)C2=C(O)CCCC2=N1 (stereo not shown) | 1.02 |
| N#C/C(=C/Nc1ccccc1)c1nc(-c2ccc(Cl)cc2Cl)cs1 | 0.526 |
| Cc1ccc(-n2ncc(C(=O)N3CCCCC3C)c2NC(=O)c2ccco2)cc1C (stereo not shown) | -3.33 |
| N#Cc1c2c(c(Cl)n3c1nc1ccccc13)CCC2 | 5.24 |
| CCc1ccc(CN2CCN(C(=O)c3cc(OC)c(OC)c(OC)c3)CC2)cc1 | 11.6 |
| CCSc1nc(-c2ccccc2)ccc1C#N | 1.96 |
| CC(CCc1ccccc1)NC(=O)CCn1c(=O)c2cccn2c2cccnc21 (stereo not shown) | 0.951 |
| COc1cc2c(cc1NC(=O)c1cnn(C)c1)oc1ccccc12 | -4.82 |
| COc1ccc(C(=O)NCCN2CCOCC2)c(OC)c1 | 13.6 |
| O=C1ON=C(c2ccccc2)/C1=C\c1ccccc1O | -2.14 |
| Cc1c2c(n3c(nc4ccccc43)c1C#N)N(Cc1cccnc1)CC2 | -1.11 |
| COc1cc(C)c(CN2CCC3(C=Cc4ccccc43)CC2)cc1C | 6.41 |
| N#CC1=C(N)OC2=C(C(=O)CCC2)C1c1ccc(-c2ccc(Cl)cc2Cl)s1 (stereo not shown) | 2.44 |
| CSc1nc2c(c(=O)n1C1CCCCC1)C1(CCCC1)Cc1ccccc1-2 | 1.27 |
| CN(CC(=O)Nc1ccc(C(F)(F)F)cc1)S(=O)(=O)c1cc(Cl)ccc1Cl | -0.992 |
| CCc1ccc(CNC(=O)CSCc2ccc(C)cc2)cc1 | 0.514 |
| N#CC1C(=O)Nc2sc(C(=O)c3ccc(Br)cc3)c(N)c2C12CCCCC2 (stereo not shown) | 0.385 |
| O=C(Cc1ccc(F)cc1)Nc1nc2ccccc2s1 | -0.872 |
| Nc1nonc1-c1noc(COc2c(F)c(F)cc(F)c2F)n1 | -7.23 |
| CC(C)(C)n1ncc2c(=O)n(Cc3cccc(C(F)(F)F)c3)cnc21 | -1.75 |
| Cc1cccc(CCNC(=O)c2cc3c(s2)-c2ccccc2S(=O)(=O)C3)c1 | 0.953 |
| CCc1ccc(C2=NNC(=O)CC2)cc1 | -2.4 |
| COc1ccc(/C=C(\C#N)c2nc(-c3cccs3)cs2)cc1OC | 4.35 |
| O=C(Cn1c2ccccc2c2cnnc(O)c21)NCc1cccnc1 | 1.38 |

| SMILES | % Inhibition @ 10 uM [%] |
| --- | --- |
| COc1ccc(OC)c(CCNC(=O)CSCc2cnn(-c3ccccc3)c2-n2cccc2)c1 | 3.24 |
| OCCN1CCN(c2c(O)nc3ccc(Cl)cc3c2-c2ccccc2)CC1 | -2.67 |
| COc1ccccc1OCC(=O)Nc1ccccc1 | 3.8 |
| Cc1[nH]c2ccccc2c1C(Nc1ccccc1F)c1cccnc1 (stereo not shown) | 4.31 |
| O=C(O)/C=C\C(=O)Nc1ccc(Br)cc1C(=O)O | 1.66 |
| Cc1ccc(-c2nc(CS(=O)CC(=O)NC3CCCC3)c(C)o2)cc1 (stereo not shown) | 0.689 |
| O=C1C=C(NCc2ccc(Cl)cc2)CC(c2ccco2)C1 (stereo not shown) | -4.48 |
| Nc1[nH]nc(-c2ccccc2)c1-c1ccccc1 | 3.9 |
| CCCN(CCC)c1ncnc2c1cnn2C | 1.42 |
| CC(C)CCNC(=O)c1c(O)nc2c(c1O)CCCC2 | 2.8 |
| Cc1ccc(CNC(=O)Cn2ccc3cc(S(=O)(=O)N4CCCC4)ccc32)cc1 | -3.12 |
| COCc1[nH]nc2c1C(c1c[nH]c3ccccc13)C(C#N)=C(N)O2 (stereo not shown) | -0.994 |
| CC1CN(c2ccc([N+](=O)[O-])c(NCc3ccccc3)c2)CCN1 (stereo not shown) | -0.711 |
| Cc1cccc2c1-c1sc(C(=O)N(CCN(C)C)Cc3ccco3)cc1CO2 | 0.291 |
| CCOC(=O)c1ccc(Oc2coc3cc(OC)ccc3c2=O)cc1 | 3.93 |
| COc1ccc(CC(=O)Nc2c3c(nc4c2CCC4)CCCC3)cc1OC | 9.01 |
| O=C(Nc1ccc2c(c1)OCO2)C12CC3CC(CC(C3)C1)C2 | 1.15 |
| CCCC1CCc2c(sc(NC(=O)C3CC=CCC3C(=O)O)c2C(N)=O)C1 (stereo not shown) | 2.43 |
| CN1CCN(c2ccc(C=C3C(=O)N(C)C(=O)N(C)C3=O)o2)CC1 | -5.28 |
| CN1C(N)=NC(=O)/C1=C/c1cc2c(cc1Cl)OCO2 | 1.27 |
| Cc1cc(C(F)F)nn1CC(=O)N1CCc2ccccc21 | 9.65 |
| COc1cccc(C(=O)c2cc3cccc(OC)c3o2)c1 | -7.3 |
| Cc1ccc2oc(=O)c3cnn(CC(=O)NCCc4ccc(Cl)cc4)c3c2c1 | 4.74 |
| COc1ccc(-c2cc(C(=O)NCCc3ccc(OC)c(OC)c3)no2)cc1 | -4.79 |
| Cc1cc(C)cc(OCC(=O)Nc2ccc(C#N)cc2)c1 | -3.75 |
| Cc1cc(C)c(NC(=O)C2CC(=O)N(c3ccc(Cl)cc3)C2)c(C)c1 (stereo not shown) | 0.431 |

| SMILES | % Inhibition @ 10 uM [%] |
| --- | --- |
| COc1ccc(Cl)cc1CC(=O)O | -0.403 |
| CN(CC(=O)Nc1ccc(Br)cc1F)S(=O)(=O)c1cc(Cl)ccc1Cl | 1.18 |
| Cc1sc(NC(=O)CSc2nc3ccccc3s2)c(C#N)c1C | 4.65 |
| COc1cc(/C=C2/SC(=O)N(C(C)C)C2=O)cc(Br)c1OCC(=O)O | 3.91 |
| O=C(NCc1cccnc1)C1CCCCN1S(=O)(=O)c1ccc(F)cc1 (stereo not shown) | -0.972 |
| CCOC(=O)C(C#N)c1nc2ccccc2nc1N1CCOCC1 (stereo not shown) | 4.44 |
| CS(=O)(=O)C1=NSC2=NC(=O)/C(=C\c3cccc4ccccc34)C(=N)N21 | -3.39 |
| COc1ccccc1N(CC(=O)NC1CC1)S(=O)(=O)c1ccccc1 | -2.03 |
| O=C(Cc1ccccc1)NCc1nc2ccccc2n1Cc1ccccc1 | -0.551 |
| COc1ccc(/C=C(\NC(C)=O)C(=O)N2CCNCC2)cc1 | -0.988 |
| CCOC(=O)c1ccccc1C(=O)c1ccccc1 | -3.04 |
| CC1=C(C(=O)Nc2ccc(F)cc2)C(c2ccncc2)n2ncnc2N1 (stereo not shown) | 3.26 |
| CC1SC(c2ccccc2)N(CCc2ccccc2)C1=O (stereo not shown) | -4.21 |
| O=C(CN1CCOCC1)c1c[nH]c2ccccc12 | 7.5 |
| CC(C)CCC1(CCc2ccncc2)C(=O)NC(=O)NC1=O | -0.992 |
| CC1CC(C)CN(CCCNC(=O)C2CCN(S(C)(=O)=O)CC2)C1 (stereo not shown) | -1.34 |
| O=C1CC2(CCCCCC2)Oc2ccc(O)cc21 | 4.79 |
| CCOC(=O)C1CCCN(C2CCN(Cc3ccccc3)CC2)C1 (stereo not shown) | 0.162 |
| CCCc1nn2cc(-c3ccc(Br)cc3)nc2s1 | 0.758 |
| COc1ccc(C(=O)C2=C(O)C(=O)N(CCCN(C)C)C2c2ccc(Cl)cc2)c(C)c1 (stereo not shown) | -1.61 |
| CCOc1cc(Br)cc(/C=C2\S/C(=N/c3cccc(C(=O)O)c3)N(C)C2=O)c1O | 6.97 |
| Cc1ccccc1CSc1nc2nccnc2c(=O)n1Cc1ccc2c(c1)OCO2 | -0.696 |
| COc1ccc(OC)c(C2CC(=O)N=C(NC(=O)c3cccnc3)N2)c1 (stereo not shown) | 7.15 |
| Cc1c(C(=O)N2CCN(c3ccccn3)CC2)sc2nc3n(c(=O)c12)CCCCC3 | -1.08 |
| OCC1(CO)C2C3C4CC5C6C4C2C6C1C53 (stereo not shown) | -5.28 |
| Cc1cccc(C)c1NC(=O)CN1CCOCC1 | 0.00784 |

| SMILES | % Inhibition @ 10 uM [%] |
| --- | --- |
| C=CCOc1ccc(C2c3c(oc4ccccc4c3=O)C(=O)N2c2nc(C)c(C(=O)OC)s2)cc1 (stereo not shown) | 3.12 |
| O=C(c1cc(C2CC2)nc2ccccc12)N1N=C(C(F)F)CC1(O)C(F)F (stereo not shown) | 0.389 |
| CCCS(=O)(=O)N1CCC(C(=O)NC2CCCC2)CC1 | 1.62 |
| CCOc1ccccc1N1CCN(Cc2ccccc2OC)CC1 | -3.71 |
| Cc1ccccc1NC(=O)c1ccc2c(c1)CCN2S(C)(=O)=O | -3.25 |
| CC(C)CCOCC(O)Cn1c2ccccc2c2ccccc21 (stereo not shown) | -1.25 |
| CCC(O)c1nc2ccccc2n1Cc1c(F)cccc1Cl (stereo not shown) | 2.05 |
| CCOC(=O)c1c(S(=O)(=O)NCc2ccco2)c(C)n(C)c1C | 0.184 |
| CN(Cc1ccccc1)c1nnc(NC(=O)c2cc(-c3ccc(Br)cc3)on2)s1 | 3.3 |
| O=C(CCC(=O)N1Cc2ccccc2Oc2ncccc21)NCc1ccco1 | -1.7 |
| Cc1ccc(Oc2cc(-n3ncc(C(N)=O)c3N)ncn2)cc1 | 1.57 |
| NC1=NC(=O)CC(Cc2ccccc2)N1 (stereo not shown) | 8.98 |
| N#CC1=C(N)n2ncnc2NC1c1ccc(F)cc1 (stereo not shown) | 4.85 |
| CCC(CN1CCOCC1)NS(=O)(=O)c1c(C)nc2scc(C)n2c1=O (stereo not shown) | -2.7 |
| O=C(c1ccccc1)c1ccc(NS(=O)(=O)c2ccc(F)cc2)cc1 | 3.29 |
| CN(C)CCN(C)Cc1ccc2c(c1)OCO2 | -4.58 |
| CC(C)C[C@H](NC(=O)OC(c1ccccc1)c1ccccc1)C(=O)NCC#N | -3.04 |
| O=C1c2ccccc2C(O)N1Cc1ccccc1 (stereo not shown) | -4.98 |
| Cc1ccc(C)c(NC(=O)CN(C2CCCCC2)S(=O)(=O)c2ccccc2)c1 | 1.96 |
| O=C(CNC(=O)c1cccs1)NCCc1ccccc1 | 0.387 |
| CCOC(=O)N1CCN(C(=O)CSc2cc(C)nc3c(-c4ccccc4OC)c(C)nn23)CC1 | 0.0198 |
| CCn1c(=O)c(C(=O)Nc2nc3ccccc3s2)c(O)c2ccccc21 | 0.431 |
| CCCc1[nH]nc2c1C(c1ccco1)C(C#N)=C(N)O2 (stereo not shown) | -2.89 |
| Cc1ccc(N2C(=O)CC3CS(=O)(=O)CC32)c(C)c1 (stereo not shown) | 2.17 |
| CCOc1cc(C(=O)NC2=NCCS2)cc(OCC)c1OCC | -1.44 |
